# From PubChem BioAssay AID602156 (GNF / Scripps Winzeler lab, 2011)
# The list shows a part of the results. Further columns of the screen follow, without active or inactive calls.
# Assay: exo-erythrocytic parasite development inhibition – imaging, Malaria Box, P. yoelii, HepG2-A16-CD81EGFP, dose response (AID 602156);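 note: infected cells exposed to compound for 48 hours before fixation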
# Conditions: P. yoelii liver stage in HepG2-A16-CD81EGFP, measured here: liver parasite size at 10 uM
row,SMILES,parasite size [um]
1,CCOC(=O)c1cn(CC)c2cc(N(C)CCc3ccc(OC)c(OC)c3)c(F)cc2c1=O,23.7
2,CC(=O)N(C1=C(N(C)C)C(=O)c2ccccc2C1=O)c1ccc(F)cc1,23.8
3,c1ccc(Cc2cc[n+](Cc3ccccc3)cc2)cc1,127
4,COc1cccc(NC(=O)c2ccc(NCCCN3CC(C)CC(C)C3)c([N+](=O)[O-])c2)c1 (stereo not drawn),87.6
5,CCN(CC)CCCN(Cc1cc2ccc(C)cc2[nH]c1=O)C(=S)Nc1cccc(Cl)c1,58.8
6,CCc1ccccc1N=C1c2c(cccc2[N+](=O)[O-])C(=O)C1C(C)=O (stereo not drawn),83.4
7,Cc1cccc(N2C(N)=NC(N)=NC2(C)C)c1,38.5
8,O=C(c1cccc([N+](=O)[O-])c1)c1ccc(Cl)c(Cl)c1,109
9,Cc1nc([P+](c2ccccc2)(c2ccccc2)c2ccccc2)c(SCc2ccccc2)o1,31.8
10,CCCC(=O)NC(c1ccc(Cl)cc1)c1ccc2cccnc2c1O (stereo not drawn),14.1
11,CCCCc1c(C)[nH]c2ccc(Br)cc2c1=O,26
12,CCCC(=O)N1CCN(c2nc(Cc3ccccc3)c3c(c2C#N)CC(C)(C)OC3)CC1,22.4
13,CCN1C(=O)N(CC)C(NNC(N)=S)C1NNC(N)=S (stereo not drawn),104
14,C/C=C/[P+](c1ccccc1)(c1ccccc1)c1ccccc1,26.1
15,CCN(CC)c1ccc(NC(=O)c2cccs2)cc1,54.1
16,CCOC(=O)C1=C(c2ccccc2)N=c2sc(=Cc3cc(C)n(-c4ccc(F)cc4)c3C)c(=O)n2C1c1cccc(OC)c1OC (stereo not drawn),106
17,Cc1ccc(Nc2nc(NCc3ccccc3)c3ccccc3n2)cc1,31.7
18,C[C@@H]1CCC[C@@H](C[C@H]2Cc3cc(O)cc(O)c3C(=O)O2)O1,42
19,COc1ccc(C(NC(=O)c2cccnc2)c2cc(Cl)c3cccnc3c2O)cc1 (stereo not drawn),21.1
20,COC(=O)c1c(-c2c(Cl)cccc2Cl)noc1NC(=O)NN1CCCCC1,75.7
21,COc1ccc(-c2c(C(F)(F)F)nn(C)c2NC(=O)Nc2ccc(F)cc2F)cc1,103
22,Oc1c(C(Nc2ccccn2)c2cccc(Cl)c2Cl)ccc2cccnc12 (stereo not drawn),23.8
23,Cc1[nH]c2ccccc2c(=O)c1CC=C(Cl)Cl,43.2
24,S=C(NN=Cc1ccccn1)NC1CC2CC1C1C=CCC21 (stereo not drawn),27.4
25,O=c1c2ccccc2[nH]c2ccc(I)cc12,24.9
26,CC(=O)Nc1nc(C)c(-c2csc(Nc3ccc(C)cc3)n2)s1,104
27,CCCCCC[n+]1ccccc1/C=C/c1ccc(N(C)C)cc1,16.8

row,SMILES,parasite size [um]
1,O=c1c2c([nH]c3ccccc13)CCCCCCCCCC2,25.1
2,Cc1ccc(C2Sc3ccccc3NC3=C2C(=O)c2ccccc23)cc1 (stereo not drawn),27
3,Brc1ccc(-c2c[n+]3c(n2-c2ccccc2)SCC3)cc1,78.7
4,COc1ccc(CN2CCOc3ccc(C(C)(O)CN(C)C)cc3C2)cc1C (stereo not drawn),87
5,COc1cccc(Nc2nc(NCCO)c3ccccc3n2)c1,54.9
6,COC(OC)C(C)=NNC(N)=S,78.8
7,Oc1cccc2ccc[n+](CC(O)Cn3c4ccccc4c4ccccc43)c12 (stereo not drawn),49.4
8,CCCCCCOc1ccc(NC(=O)c2cccs2)cc1,27.9
9,CC(=O)N(C1=C(N2CCOCC2)C(=O)c2ccccc2C1=O)c1ccc(I)cc1,50.1
10,CCN(CC)CCN(Cc1cc2ccc(C)cc2[nH]c1=O)C(=S)NC(C)c1ccccc1 (stereo not drawn),66.2
11,Cc1cc(N)c2ccccc2[n+]1CCCCCCCCCC[n+]1c(C)cc(N)c2ccccc21,40.3
12,Cc1ccc(-c2[nH]n3c(=O)c4c(nc3c2C)CCCC4)cc1,28.7
13,CC(Oc1ccc(Cl)cc1Cl)c1nc(-c2ccc(NC(=O)c3ccco3)cc2)no1 (stereo not drawn),28.2
14,CCCCNC(=O)C(CC)Sc1nnc(-c2ccc(C)cc2)c(-c2ccc(C)cc2)n1 (stereo not drawn),31
15,Cc1cccc(NC(=S)NC2CC3CCCC(C2)N3CCc2ccccc2)c1 (stereo not drawn),67.7
16,COc1cc(C(=O)N2N=C(c3c(-c4ccccc4)c4cc(Br)ccc4[nH]c3=O)CC2c2cccc([N+](=O)[O-])c2)cc(OC)c1OC (stereo not drawn),29.4
17,Cc1oc2c(c1C(=O)NC1CCS(=O)(=O)C1)C(=O)c1ccccc1C2=O (stereo not drawn),17.5
18,CCCCc1c(C)[nH]c2c(OC)cccc2c1=O,42.6
19,O=C(Cn1ccc(=NCc2ccccc2)cc1)c1ccc(I)cc1,45
20,Cc1ccnc(NC(c2ccc3ccccc3c2)c2ccc3cccnc3c2O)c1 (stereo not drawn),26.7
21,COc1ccc(-c2n(CC(=O)OC3CC(C)CCC3C(C)C)c3ccccc3[n+]2C)cc1 (stereo not drawn),14.3
22,CCN1CCN(c2cc(C)c3cc(NC(=O)c4cc(OC)cc(OC)c4)ccc3n2)CC1,114
23,Cc1ccnc(Nc2nc(-c3ccccn3)cs2)c1,19.2
24,Cc1ccc(CSCc2ccc(C(=O)NC3CC3)o2)cc1,25.4
25,CC1(C)N=C(N)N=C(N)N1c1ccccc1,37
26,CC(C)(C)C1CCc2[nH]c3ccccc3c(=O)c2C1 (stereo not drawn),22.1
